{"source": "the RNAGym collection of RNA variant scans (doi:10.1093/nar/gkz1192)", "parents": {"B1": {"name": "CPEB3 Ribozyme (parent)", "chain": "UAACAGGGGGCCACAGCAGAAGCGUUCACGUCGCAGCCCCUGUCAGAUUCUGGUGAAUCUGCGAAUUCUGCUGUAUAUCUC"}}, "note": "The source gives no read counts; variants with many changes may rest on few reads."}
{"variants_of": "B1", "experiment": "self-cleavage, relative activity (ratio to wild type); higher = more cleavage; in vitro, sequencing", "procedure,_shortened": "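CPEB3 self-cleaving ribozyme mutant libraries were made by rounds of error-prone PCR, barcoded, and transcribed in vitro with T7 RNA polymerase for 5 hours at 37°C. Cleavage occurred during transcription and a 15 min DNase I step before EDTA stop. RNAs were reverse transcribed with template switching and Illumina-sequenced, with DNA sequencing mapping barcodes to variants. Relative activity is the variant's cleaved/total read fraction divided by wild type's (minimum 5 reads), averaged across three batches.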"}
{"variant": "UAACAGGGGGCCACAGCAGAAGCGUUCACGUCACAGCCCCCGUCAGGUUCUGGUGAAUCUGCGAAUUCUGCUGUAUAUCUC", "self-cleavage": 0.33}
{"variant": "UAACAGGGGGCCACAGCAGAAGCGUUCACGUCACAGCCCCCGUCAGAUUCUGGUGAAUCUGCGAAUUCUGCUGUAUUCCUC", "self-cleavage": 0.06}
{"variant": "UAACAGGGGGCCACAGCAGAAGCGUUCACGUCACAGCCCCCGUCAGAUUCUGGUGAAUCUGCGAAUUCUGCAGUAUAUCUC", "self-cleavage": 0.15}
{"variant": "UAACAGGGGGCCACAGCAGAAGCGUUCACGUCACAGCCCCUGCCAGGUUCUGGUGAAUCUGCGGAUUCUGCUGUAUAUCUC", "self-cleavage": 0.19}
{"variant": "UAACAGGGGGCCACAGCAGAAGCGUUCACGUCACAGCCCCUGCCAGAUUCUGGUGACUCUGCGAAUCCUGCUGUACAUCUC", "self-cleavage": 0.05}
{"variant": "UAACAGGGGGCCACAGCAGAAGCGUUCACGUCACAGCCCCUGCCAGAUUCUCGUGAAUCUGCGAAUUCAGCUGUAUAUCUC", "self-cleavage": 0.07}
{"variant": "UAACAGGGGGCCACAGCAGAAGCGUUCACGUCACAGCCCCUGCCAGAUUCCGGUGAAUCAGCGAAUUCUGCUGUAUAUCUC", "self-cleavage": 0.3}
{"variant": "UAACAGGGGGCCACAGCAGAAGCGUUCACGUCACAGCCCCUGCCAGAUUCUGGUGAAUCCGCGAAUUCUGCUGUAUAUCCC", "self-cleavage": 0.19}
{"variant": "UAACAGGGGGCCACAGCAGAAGCGUUCACGUCACAGCCCCUGCCAGAUUCUGGUGAAUCUGCGAAUCCUGCUGUGUAUCUC", "self-cleavage": 0.06}
{"variant": "UAACAGGGGGCCACAGCAGAAGCGUUCACGUCACAGCCCCUGGCAGAUUCUGGUGAAACUACGAAUUCUGCUGUAUAUCUC", "self-cleavage": 0.12}
{"variant": "UAACAGGGGGCCACAGCAGAAGCGUUCACGUCACAGCCCCUGUCAGAAUCUGGUGAGUCUGCGAAUUCUGCUGUAUAUCUC", "self-cleavage": 0.12}
{"variant": "UAACAGGGGGCCACAGCAGAAGCGUUCACGUCACAGCCCCUGUCAGACUCUGGUGAAUCCGCGAAUUCCGCUGUAUAUCUC", "self-cleavage": 0.09}
{"variant": "UAACAGGGGGCCACAGCAGAAGCGUUCACGUCACAGCCCCUGUCAGAUACUGGUGAACCUGCGAAUUCUGCUGUAUAUCUC", "self-cleavage": 0.12}
{"variant": "UAACAGGGGGCCACAGCAGAAGCGUUCACGUCACAGCCCCUGUCAGAUCCUGGUGAAUCAGCGAAUUCUGUUGUAUAUCUC", "self-cleavage": 0.06}
{"variant": "UAACAGGGGGCCACAGCAGAAGCGUUCACGUCACAGCCCCUGUCAGAUUCAGGUGAAUCAGCGAAUUCUGCUGUAUAUCUC", "self-cleavage": 0.16}
{"variant": "UAACAGGGGGCCACAGCAGAAGCGUUCACGUCACAGCCCCUGUCAGAUUCCGGUGAAUCCGCGAAUUCUGCUGUAAAUCUC", "self-cleavage": 0.17}
{"variant": "UAACAGGGGGCCACAGCAGAAGCGUUCACGUCACAGCCCCUGUCAGAUUCCGGUGAAUCUGCGAAUUCUGCUGUAAAUCUC", "self-cleavage": 0.21}
{"variant": "UAACAGGGGGCCACAGCAGAAGCGUUCACGUCACAGCCCCUGUCAGAUUCGGGUGAAUCUGGGAACUCAGCUGUAUAUCUC", "self-cleavage": 0.27}
{"variant": "UAACAGGGGGCCACAGCAGAAGCGUUCACGUCACAGCCCCUGUCAGAUUCUGGGGAAUCUGCGUAUUCUGCUGUAUAUCUC", "self-cleavage": 0.06}
{"variant": "UAACAGGGGGCCACAGCAGAAGCGUUCACGUCACAGCCCCUGUCAGAUUCUGGGGAAUCUGCUAAUUCUGCUGUAUAUCUC", "self-cleavage": 0.23}
{"variant": "UAACAGGGGGCCACAGCAGAAGCGUUCACGUCACAGCCCCUGUCAGAUUCUGGUGAAACCGCGAAUUCUGCCGUAUAUCUC", "self-cleavage": 0.18}
{"variant": "UAACAGGGGGCCACAGCAGAAGCGUUCACGUCACAGCCCCUGUCAGAUUCUGGUGAAUCUGCGAAUCCUGCUGUAUACCCC", "self-cleavage": 0.08}
{"variant": "UAACAGGGGGCCACAGCAGAAGCGUUCACGUCACAGCCCCUGUCAGAUUCUGGUGAAUCUGCGAAUUCCGCUGUAUACUUC", "self-cleavage": 0.11}
{"variant": "UAACAGGGGGCCACAGCAGAAGCGUUCACGUCCCGGCCCCUGUCGGAUUCUGGAGAAUCCGCGAACUCUGCUGUAUAUCUC", "self-cleavage": 0.18}
{"variant": "UAACAGGGGGCCACAGCAGAAGCGUUCACGUCCCGGCCCCUGUCAGAUUCUGGUGAAUCUGCGAAUUCUGCUGAAUAUCUC", "self-cleavage": 0.03}
{"variant": "UAACAGGGGGCCACAGCAGAAGCGUUCACGUCCCUGCCCAUGCCAGAUUCUGGUGAAUCUGCGAGUUCUGCUGUAUAUCUC", "self-cleavage": 0.12}
{"variant": "UAACAGGGGGCCACAGCAGAAGCGUUCACGUCCCUGCCCCUGUCAGAUUCUGGUGAAUCUGCGAAUUCUACAGUAUAUCUC", "self-cleavage": 0.15}
{"variant": "UAACAGGGGGCCACAGCAGAAGCGUUCACGUCCCAGCCCCUGUCAGAUUCUGGUGGAUCUGCGAACUCUGCUGUAUAUCCC", "self-cleavage": 0.13}
{"variant": "UAACAGGGGGCCACAGCAGAAGCGUUCACGUCCCAGCUCCCGUCAGAUUCUGGUGAAUCUGCGAAUUCUGCAGUAUAUCUC", "self-cleavage": 0.07}
{"variant": "UAACAGGGGGCCACAGCAGAAGCGUUCACGUCCCAGCCCAAGUCAGAUUCUGGUGAAUCUGCGAGUUCUGCUGUAUAUCUC", "self-cleavage": 0.08}
{"variant": "UAACAGGGGGCCACAGCAGAAGCGUUCACGUCCCAACCCCUGUCAGAUUCGGGUGAAUCUGCGAAUUCUACCGUAUAUCUC", "self-cleavage": 0.06}
{"variant": "UAACAGGGGGCCACAGCAGAAGCGUUCACGUCCCACCCCCUGUCAGCAUCUGGUGAAUCUGCGAAUUCAGCAGUAUAUCUC", "self-cleavage": 0.05}
{"variant": "UAACAGGGGGCCACAGCAGAAGCGUUCACGUCCCAGCCCCUGUCAUAUUCUGGUGAAUCUGCGAGUUCUGCUGUAUAUCUC", "self-cleavage": 0.12}
{"variant": "UAACAGGGGGCCACAGCAGAAGCGUUCACGUCCCAGCCCCAGUCAGACUCUGGUGAAUCUGCGGAUUCUGCUGUAUAUCUC", "self-cleavage": 0.14}
